Measured values: publication PMC6113314
Numbering of substitutions follows the chain as printed. Names and notes keep the numbering of the source. No constants are given. Whether binding was seen depends on the method and setting. In cells and extracts the contact can be indirect. Some binding calls cover weakened binding; strength is not graded here. For some of these results: Where a sequence is shown, tags or fusion partners need not be part of it. Values belong to the binder of their own block, whether it stands above or below them.

By UniProt entry, the sequences of proteins in these tests, tags left out.
UniProt P49815: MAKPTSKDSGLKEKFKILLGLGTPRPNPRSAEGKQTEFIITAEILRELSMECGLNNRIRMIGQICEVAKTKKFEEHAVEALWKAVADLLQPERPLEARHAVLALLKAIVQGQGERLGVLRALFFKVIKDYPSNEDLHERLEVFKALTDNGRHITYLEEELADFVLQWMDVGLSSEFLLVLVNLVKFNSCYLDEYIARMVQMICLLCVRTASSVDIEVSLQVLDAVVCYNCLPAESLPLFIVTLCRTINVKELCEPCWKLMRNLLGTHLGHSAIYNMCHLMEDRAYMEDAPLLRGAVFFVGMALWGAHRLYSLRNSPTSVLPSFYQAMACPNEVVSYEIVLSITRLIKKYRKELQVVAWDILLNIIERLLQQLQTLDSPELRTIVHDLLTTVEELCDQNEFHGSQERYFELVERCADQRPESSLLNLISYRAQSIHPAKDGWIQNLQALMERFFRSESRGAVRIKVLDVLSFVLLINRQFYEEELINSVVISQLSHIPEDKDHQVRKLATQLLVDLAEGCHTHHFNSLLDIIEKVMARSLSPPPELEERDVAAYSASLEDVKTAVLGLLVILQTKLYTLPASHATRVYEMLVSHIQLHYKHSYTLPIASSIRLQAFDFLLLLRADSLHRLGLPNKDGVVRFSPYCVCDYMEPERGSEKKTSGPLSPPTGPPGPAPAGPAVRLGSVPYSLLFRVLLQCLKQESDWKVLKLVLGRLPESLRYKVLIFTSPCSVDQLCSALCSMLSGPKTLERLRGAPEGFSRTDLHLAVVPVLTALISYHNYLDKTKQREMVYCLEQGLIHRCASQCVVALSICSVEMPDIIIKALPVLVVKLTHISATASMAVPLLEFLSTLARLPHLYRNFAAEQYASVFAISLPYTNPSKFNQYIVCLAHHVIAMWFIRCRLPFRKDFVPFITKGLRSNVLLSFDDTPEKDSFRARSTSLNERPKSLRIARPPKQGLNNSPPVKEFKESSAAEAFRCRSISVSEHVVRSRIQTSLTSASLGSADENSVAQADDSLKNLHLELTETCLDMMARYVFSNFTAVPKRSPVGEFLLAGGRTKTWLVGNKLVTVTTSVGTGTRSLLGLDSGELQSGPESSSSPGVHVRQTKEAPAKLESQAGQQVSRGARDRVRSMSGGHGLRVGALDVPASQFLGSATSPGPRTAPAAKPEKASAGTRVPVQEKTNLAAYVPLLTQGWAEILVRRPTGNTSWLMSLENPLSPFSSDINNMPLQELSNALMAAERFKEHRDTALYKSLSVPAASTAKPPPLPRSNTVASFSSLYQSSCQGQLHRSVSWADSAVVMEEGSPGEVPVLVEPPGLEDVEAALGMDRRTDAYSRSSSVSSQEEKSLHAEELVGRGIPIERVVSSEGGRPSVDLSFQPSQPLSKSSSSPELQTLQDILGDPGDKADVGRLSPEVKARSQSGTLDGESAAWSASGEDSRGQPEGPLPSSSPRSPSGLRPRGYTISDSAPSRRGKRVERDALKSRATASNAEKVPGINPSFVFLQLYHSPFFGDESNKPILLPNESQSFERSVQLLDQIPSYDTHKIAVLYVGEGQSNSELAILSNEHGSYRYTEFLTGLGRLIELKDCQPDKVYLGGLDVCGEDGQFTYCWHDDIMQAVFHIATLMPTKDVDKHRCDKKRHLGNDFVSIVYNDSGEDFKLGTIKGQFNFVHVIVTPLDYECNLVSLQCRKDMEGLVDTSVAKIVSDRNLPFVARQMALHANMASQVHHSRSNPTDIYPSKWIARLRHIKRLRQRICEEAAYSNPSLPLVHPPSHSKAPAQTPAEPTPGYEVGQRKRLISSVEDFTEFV

Columns and labels:
HA-TSC2 = HA-TSC2 (UniProt P49815); assay: co-IP; HEK293T cotransfected with FLAG-IKKβ, Myc-ARD1 and HA-TSC2; immunoprecipitation with anti-HA; with or without IKKβ; MG132 in Supplementary Fig. 2B
[1] = molecular target: Tuberous sclerosis complex 2 (TSC2), endogenous (human (endogenous in MCF-7)) (UniProt P49815); assay: co-IP; endogenous proteins; MCF-7 serum-starved overnight, with or without TNFα 1 h; lysates immunoprecipitated with antibodies to ARD1 and TSC2; MG132 in Supplementary Fig. 2C
[2] = molecular target: T1, Arrest-defective protein 1 (ARD1), endogenous (human (endogenous in MCF-7 and MDA-MB-231)), P41227; assay: co-IP; endogenous proteins; breast cancer cells serum-starved overnight, TNFα (10 ng/ml) 30 min; lysates immunoprecipitated with anti-ARD1, immunoblot anti-IKKβ; IKKα co-IP and immunoblot as control; CHAPS cell extract buffer; conditions: remark: other sources report otherwise
T1 chain: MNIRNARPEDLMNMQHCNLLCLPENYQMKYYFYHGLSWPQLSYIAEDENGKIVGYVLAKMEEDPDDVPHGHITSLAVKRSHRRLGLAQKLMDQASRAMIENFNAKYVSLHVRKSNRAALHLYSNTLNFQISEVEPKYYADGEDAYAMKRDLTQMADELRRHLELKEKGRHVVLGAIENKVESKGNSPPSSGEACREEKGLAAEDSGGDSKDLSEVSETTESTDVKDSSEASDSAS

HA-ARD1 (human), P41227 = molecular target: T2, HA-ARD1 (human), P41227; assay: co-IP; HEK293T cotransfected with Flag-IKKβ, Flag-IKKα or K44A kinase-dead mutants and HA-ARD1; immunoprecipitation (Supplementary Fig. 1B); conditions: remark: other sources report otherwise
T2 chain: T1 chain

[3] = molecular target: T3, Arrest-defective protein 1 (ARD1), endogenous (human (endogenous in MCF-7 and MDA-MB-231)) (UniProt P41227); assay: co-IP; endogenous proteins; breast cancer cells serum-starved overnight, TNFα (10 ng/ml) 30 min; lysates immunoprecipitated with anti-ARD1, immunoblot anti-IKKβ; IKKα co-IP and immunoblot as control; CHAPS cell extract buffer
T3 sequence: T1 chain

HA-ARD1 (human) = molecular target: T4, HA-ARD1 (human) (UniProt P41227); assay: co-IP; HEK293T cotransfected with Flag-IKKβ, Flag-IKKα or K44A kinase-dead mutants and HA-ARD1; immunoprecipitation (Supplementary Fig. 1B)
T4 sequence: T1 chain

binding (HA-TSC2): binds
B1: Myc-ARD1 (protein, UniProt P41227 1-235)
chain: T1 chain

binding [3]: binds
B5: IκB kinase β (IKKβ), endogenous (enzyme, UniProt O14920 1-756)
chain: MSWSPSLTTQTCGAWEMKERLGTGGFGNVIRWHNQETGEQIAIKQCRQELSPRNRERWCLEIQIMRRLTHPNVVAARDVPEGMQNLAPNDLPLLAMEYCQGGDLRKYLNQFENCCGLREGAILTLLSDIASALRYLHENRIIHRDLKPENIVLQQGEQRLIHKIIDLGYAKELDQGSLCTSFVGTLQYLAPELLEQQKYTVTVDYWSFGTLAFECITGFRPFLPNWQPVQWHSKVRQKSEVDIVVSEDLNGTVKFSSSLPYPNNLNSVLAERLEKWLQLMLMWHPRQRGTDPTYGPNGCFKALDDILNLKLVHILNMVTGTIHTYPVTEDESLQSLKARIQQDTGIPEEDQELLQEAGLALIPDKPATQCISDGKLNEGHTLDMDLVFLFDNSKITYETQISPRPQPESVSCILQEPKRNLAFFQLRKVWGQVWHSIQTLKEDCNRLQQGQRAAMMNLLRNNSCLSKMKNSMASMSQQLKAKLDFFKTSIQIDLEKYSEQTEFGITSDKLLLAWREMEQAVELCGRENEVKLLVERMMALQTDIVDLQRSPMGRKQGGTLDDLEEQARELYRRLREKPRDQRTEGDSQEMVRLLLQAIQSFEKKVRVIYTQLSKTVVCKQKALELLPKVEEVVSLMNEDEKTVVRLQEKRQKELWNLLKIACSKVRGPVSGSPDSMNASRLSQPGQLMSQPSTASNSLPEPAKKSEELVAEAHNLCTLLENAIQDTVREQDQSFTALDWSWLQTEEEEHSCLEQAS

Second part, the binder before the results:

B2: Arrest-defective protein 1 (ARD1), endogenous (protein, UniProt P41227 1-235)
chain: T1 chain
binding [1]: binds

B3: IκB kinase α (IKKα), endogenous, O15111 1-745 (enzyme)
chain: MERPPGLRPGAGGPWEMRERLGTGGFGNVCLYQHRELDLKIAIKSCRLELSTKNRERWCHEIQIMKKLNHANVVKACDVPEELNILIHDVPLLAMEYCSGGDLRKLLNKPENCCGLKESQILSLLSDIGSGIRYLHENKIIHRDLKPENIVLQDVGGKIIHKIIDLGYAKDVDQGSLCTSFVGTLQYLAPELFENKPYTATVDYWSFGTMVFECIAGYRPFLHHLQPFTWHEKIKKKDPKCIFACEEMSGEVRFSSHLPQPNSLCSLVVEPMENWLQLMLNWDPQQRGGPVDLTLKQPRCFVLMDHILNLKIVHILNMTSAKIISFLLPPDESLHSLQSRIERETGINTGSQELLSETGISLDPRKPASQCVLDGVRGCDSYMVYLFDKSKTVYEGPFASRSLSDCVNYIVQDSKIQLPIIQLRKVWAEAVHYVSGLKEDYSRLFQGQRAAMLSLLRYNANLTKMKNTLISASQQLKAKLEFFHKSIQLDLERYSEQMTYGISSEKMLKAWKEMEEKAIHYAEVGVIGYLEDQIMSLHAEIMELQKSPYGRRQGDLMESLEQRAIDLYKQLKHRPSDHSYSDSTEMVKIIVHTVQSQDRVLKELFGHLSKLLGCKQKIIDLLPKVEVALSNIKEADNTVMFMQGKRQKEIWHLLKIACTQSSARSLVGSSLEGAVTPQTSAWLPPTSAEHDHSLSCVVTPQDGETSAQMIEENLNCLGHLSTIIHEANEEQGNSMMNLDWSWLTE
binding [2]: no binding

B4: Flag-IKKα, O15111 1-745 (enzyme)
chain: B3 chain
binding (HA-ARD1 (human), P41227): no binding

B6: Flag-nIKKβ (kinase-dead mutant of IKKβ, K44A) (enzyme, UniProt O14920 1-756)
chain: B5 chain with K44A
binding (HA-ARD1 (human)): binds

B7: Flag-IKKβ (enzyme, UniProt O14920 1-756)
chain: B5 chain
binding (HA-ARD1 (human)): binds
